Data reported in publication PMC4336329 (PLoS ONE, 2015).
About 14,000 (4.5%) of roughly 310,000 compounds showed an effect of 50% or more. Effects have a minus sign here. The list shows a part of the results.

The compounds below were run against human ether-à-go-go-related gene (hERG) potassium channel (human, UniProt Q12809) (assay: primary screen, population patch clamp on CHO cells stably expressing hERG).
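Also: peak tail current of the secondary pulse compared with the same well before compound.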

Chain of human ether-à-go-go-related gene (hERG) potassium channel (Q12809 whole entry, looked up): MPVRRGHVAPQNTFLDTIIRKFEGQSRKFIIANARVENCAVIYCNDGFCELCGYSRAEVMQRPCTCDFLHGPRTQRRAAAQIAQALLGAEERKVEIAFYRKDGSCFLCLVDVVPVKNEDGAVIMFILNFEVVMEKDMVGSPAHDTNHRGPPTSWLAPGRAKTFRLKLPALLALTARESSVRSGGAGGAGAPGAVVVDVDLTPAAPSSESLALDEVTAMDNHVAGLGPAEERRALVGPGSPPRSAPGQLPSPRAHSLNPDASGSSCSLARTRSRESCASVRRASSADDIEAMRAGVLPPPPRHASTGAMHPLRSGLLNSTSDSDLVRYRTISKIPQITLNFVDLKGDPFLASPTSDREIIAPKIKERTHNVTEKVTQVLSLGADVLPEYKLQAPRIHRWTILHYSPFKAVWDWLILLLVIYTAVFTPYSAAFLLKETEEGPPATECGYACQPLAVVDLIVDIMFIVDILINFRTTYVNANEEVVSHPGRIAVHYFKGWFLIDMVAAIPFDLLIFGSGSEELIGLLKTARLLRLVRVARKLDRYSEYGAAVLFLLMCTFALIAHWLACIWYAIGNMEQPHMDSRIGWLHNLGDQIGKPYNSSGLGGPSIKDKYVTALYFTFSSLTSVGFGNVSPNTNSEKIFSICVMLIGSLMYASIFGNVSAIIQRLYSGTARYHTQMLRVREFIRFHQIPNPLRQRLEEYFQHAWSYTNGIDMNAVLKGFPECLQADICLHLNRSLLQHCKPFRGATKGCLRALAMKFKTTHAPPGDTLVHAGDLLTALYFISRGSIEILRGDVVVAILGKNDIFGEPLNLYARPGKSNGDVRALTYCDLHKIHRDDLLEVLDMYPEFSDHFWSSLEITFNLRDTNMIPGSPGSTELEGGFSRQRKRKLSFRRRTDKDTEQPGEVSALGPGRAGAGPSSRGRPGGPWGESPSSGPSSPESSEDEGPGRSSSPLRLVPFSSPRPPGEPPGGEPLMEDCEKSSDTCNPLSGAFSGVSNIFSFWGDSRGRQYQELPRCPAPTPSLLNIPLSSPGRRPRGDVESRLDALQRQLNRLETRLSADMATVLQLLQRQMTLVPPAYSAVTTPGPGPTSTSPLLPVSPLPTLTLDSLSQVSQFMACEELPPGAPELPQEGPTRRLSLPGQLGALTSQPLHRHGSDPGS

Structure (SMILES) | hERG current change (%, negative = inhibition) at 10uM [%]
COCCNC(=O)C1c2ccccc2C(=O)N(CCOC)C1c1ccc(F)cc1 (stereo not drawn) | 15
COc1ccc(C)cc1NC(=O)CN1CCN(S(=O)(=O)c2ccc(Cl)cc2)CC1 | -23.8
COc1ccc(Nc2nc(NCCO)nc(N3CCCC3)n2)cc1 | -38.3
Cl.OCCN(CCO)CC(O)Cn1c2ccccc2c2ccccc21 (stereo not drawn) | -16.1
CCOc1ccc(CCNC(=O)c2cccc(NC3=NC4CS(=O)(=O)CC4S3)c2)cc1OCC (stereo not drawn) | 8.09
COc1ccc(N2C(=O)CS/C2=N\C(=S)Nc2ccccc2)cc1 | 8.31
CN(C(=O)COC(=O)C12CC3CC(CC(Cl)(C3)C1)C2)C1(C#N)CCCCC1 | -53.5
N#C/C(=C1/CCCCCN1)c1nc2ccccc2s1 | 4.18
CC1(C)CC(=O)C(C(c2cccc([N+](=O)[O-])c2)C2C(=O)CC(C)(C)CC2=O)C(=O)C1 | -1.2
O=C(NCC(=O)N1CCN(C(=O)c2ccco2)CC1)c1ccc(Cl)cc1 | -34.1
Cc1cc(C(=O)N/N=C/C=C/c2ccccc2)n[nH]1 | 2.85
COc1ccc2oc(-c3ccco3)cc(=O)c2c1 | -2.83
CCOC(=O)C1CCCN(C(=O)c2cccc(S(=O)(=O)N(Cc3ccccc3)c3ccccc3OC)c2)C1 (stereo not drawn) | -33.6
CCOC(=O)C(=O)Nc1ccc([N+](=O)[O-])cc1OC | -2.52
COc1ccc(C(=O)Nc2ncc3c(n2)CC(c2ccco2)CC3=O)cc1 (stereo not drawn) | -16.3
O=C(/C=C/c1ccccc1Cl)Nn1cnc2ccccc2c1=O | 5.09
CN1CCN(C(=S)NC(=O)c2ccco2)CC1 | 15.2
COc1ccc(N(CC(=O)N2CCN(c3ccccc3)CC2)S(=O)(=O)c2ccc(C)cc2)cc1 | 5.26
CC[C@H]1c2[nH]c3ccccc3c2C[C@@H]2C(=O)N(c3ccc(F)cc3)C(=O)N21 | 16.6
CC(C)n1c(=O)[nH]c2cc(C(=O)Nc3ccccc3)ccc21 | 4.59
O=C(CCCOc1ccc(Cl)cc1)NCC1CCCO1 (stereo not drawn) | 6.4

Structure (SMILES) | hERG current change (%, negative = inhibition) at 10uM [%]
COc1ccc(C(=O)N/N=C2/SCC(=O)N2Cc2ccc3c(c2)OCO3)cc1OC | -3.17
CCCC(=O)Nc1nnc(SCC(=O)N2CCCCC2)s1 | 7.4
COc1ccc(NC(=O)c2ccc(COc3ccccc3OC)o2)cc1OC | 2.82
COC(=O)c1ccccc1NC(=O)CSc1[nH]c(=O)cc(C)c1C#N | 18.2
CC(C)(C)c1ccc(OCc2nnc(SCC(N)=O)n2N)cc1 | 3.01
Cc1nnc2sc(-c3cccc(NC(=O)c4cccnc4)c3)nn12 | -31.9
O=C1NC2(CCCC2)C(=O)N1Cc1cc(=O)n2ccsc2n1 | 8.23
O=C(OC[C@H]1O[C@@H](OC(=O)c2cc(O)c(O)c(OC(=O)c3cc(O)c(O)c(O)c3)c2)[C@H](OC(=O)c2cc(O)c(O)c(OC(=O)c3cc(O)c(O)c(O)c3)c2)[C@@H](OC(=O)c2cc(O)c(O)c(OC(=O)c3cc(O)c(O)c(O)c3)c2)[C@@H]1OC(=O)c1cc(O)c(O)c(OC(=O)c2cc(O)c(O)c(O)c2)c1)c1cc(O)c(O)c(OC(=O)c2cc(O)c(O)c(O)c2)c1 | 19.3
COc1ccc(NC(=O)CN(C)C(=O)c2cccnc2Sc2ccc(C)c(C)c2)cc1 | -2.6
COc1ccc(NC(=O)CSc2nnc(-c3cnccn3)n2C)cc1OC | 16.2
O=C(CN(Cc1cccs1)C(=O)CN1C(=O)COc2ccccc21)NCc1ccco1 | -6.28
O=C(O)C1C2C=CC3(CN(c4cccc(C(F)(F)F)c4)C(=O)C13)O2 (stereo not drawn) | 17.3
O=C(Nc1cccnc1)Nc1cc(Cl)cc(Cl)c1 | 6.81
COc1cccc(CNC(=O)C(=O)N2CCC3(CC2)OCCN3S(=O)(=O)c2ccc(C)cc2)c1 | -57
Cc1ccc(N(C(=O)c2ccc(CN3CCOCC3)o2)C(C(=O)NCCC(C)C)c2cccs2)c(C)c1 (stereo not drawn) | 7.06
Cc1sc2ncnc(N3CCC(C(=O)Nc4ccc(Cl)c(Cl)c4)CC3)c2c1C | -7.26
CC(=O)Nc1nc(N2C(=O)c3ccccc3C2=O)n(-c2ccccc2)n1 | 18.7
CC(=O)NNC(=O)c1nc(-c2ccccc2)c(C)o1 | 13.7
CC1(C)CN(c2ccc(N3CC(C)(C)C3=O)cc2)C1=O | 4.66
O=C(NCc1csc(-c2cccs2)n1)c1cccc(Cl)c1 | -28.2
CC(=O)Nc1ccccc1OCCOc1ccc(Br)cc1 | -1.67
